Source: PubChem BioAssay AID1347417 (National Center for Advancing Translational Sciences (NCATS), 2020)
Out of some 120,000 compounds screened, about 5,300 (4.4%) were called active. This list was built around the results that the source calls inconclusive (neither active nor inactive); the mix of calls is not that of the screen. The call rests on the fitted dose curve; in most records, active means well fitted inhibition curve with a large enough effect; inconclusive means small, poorly fitted or top-dose-only effect; inactive means no such curve, though single readings can be large or run the other way. Potencies beside an inconclusive call are fits to weak or partial responses and may not hold up.

Assay: qHTS Primary assay for Inhibitors of Plasmodium falciparum Dd2 growth in vitro; further: nearly all actives have a fitted effect of over 65% in size;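 on activity, negative = inhibition: plate controls were DMSO vehicle for no effect and reference drug for full effect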
Conditions: P. falciparum Dd2 growth, SYBR Green, 72 h; activity, negative = inhibition: at 28.9 µM (top of the series) unless noted; series mostly up to 28.9 µM
How it was run: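 Readout: SYBR Green fluorescence, 485 nm excitation, 535 nm emission, after ~16 h lysis at 37C. Before that, Dd2-infected red cells (2.5% hematocrit) grew 72 h with compound, 29 uM top final concentration.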
Potency means the concentration at half of the fitted maximal effect; tags describe the fitted curve by direction and shape.

Structure (SMILES)	Potency	outcome	activity, negative = inhibition
CCOc1ccc(C2Cn3nnc(-c4nc(-c5ccsc5)no4)c3CO2)cc1 (configuration not stated)	inconclusive: 0.562 µM [inhibitor, full curve, poor fit]		
O=C1OC[C@@H]2CCN(Cc3ccccn3)Cc3ccccc3N12	inconclusive: 17.8 µM [inhibitor, partial curve, poor fit]		
Cc1cnc(CCNC(=O)c2ccc(C#N)cc2)n1C1CCCC1	inconclusive: 10 µM [inhibitor, partial curve, poor fit]		
O=C(Nc1ccc(Br)cc1)c1ccc(Cl)c(S(=O)(=O)N2CCCCCC2)c1	inconclusive: 17.8 µM [inhibitor, single point]		
CN(C)CCN(C)[C@@H]1[C@H](O)[C@H](CO)O[C@@H]1CNC1CCN(C)CC1	inactive		
O=C([C@H]1C[C@H](Oc2ccccc2)CN1C(=O)c1cccc(F)c1)N1CCOCC1	inactive		
Cc1ccc(NS(=O)(=O)c2ccc3c(c2)NC(=O)CCS3)cc1F	inconclusive: 10 µM [inhibitor, single point]		
CCOc1cc(-c2c(-c3ccccc3)ncn2CCNC(C)=O)ccc1OC	inactive		
Cc1ccc(CN2CCC[C@H]2c2nc(-c3ccc(OC4CCCCC4)nc3)no2)cc1	inactive		
CCCN(CC1CCOC1)S(=O)(=O)c1cccc(C(F)(F)F)c1 (configuration not stated)		inactive [at 5.79 µM]	
COc1ccccc1CN(C)C1CCCc2ccccc21 (configuration not stated)	inconclusive: 0.447 µM [inhibitor, full curve, poor fit]		
COc1cccc(CNC(=O)CN2C(=O)NC(c3ccccc3Cl)C3=C2COC3=O)c1OC (configuration not stated)	inconclusive: 17.8 µM [inhibitor, single point]		
COCCNC(=O)CCSc1nc(-c2ccc3c(c2)OCO3)cc(C(F)(F)F)n1	inconclusive: 20 µM [inhibitor, single point]		
CN(Cc1ccccn1)C1CCCc2ccccc21 (configuration not stated)	inconclusive: 3.98 µM [inhibitor, partial curve, poor fit]		
CN(C)CC1(O)CCC2(CCN(S(=O)(=O)c3ccc(F)cc3)CC2)CC1	inconclusive: 10 µM [inhibitor, single point]		
C=CCNC(=O)CCc1c(C)nn(-c2ccc(F)cc2)c1Oc1ccccc1OC	inactive		
COCCOC(=O)C1=C(C)N=C2SCCC(=O)N2C1c1ccc(OCc2ccccc2)c(OC)c1 (configuration not stated)	inconclusive: 7.94 µM [inhibitor, single point]		
Cc1cc(C)c2c(CC(=O)Nc3c(C(=O)c4ccc(F)cc4)oc4ccccc34)coc2c1			inconclusive: -37% [inhibitor] [at 5.79 µM]
COc1ccc(-n2nc3n(c2=O)CCN(Cc2ccc(N(C)C)cc2)C3)cc1	inactive		
O=C(NCc1ccc(F)cc1)c1nc2sccn2c1Br	inconclusive: 10 µM [inhibitor, single point]		
COc1cccc(NC(=O)c2cnc3c(c2)N(C(=O)Cc2cn(C)c4ccccc24)CCC3)c1	inconclusive: 0.708 µM [inhibitor, partial curve]		
COc1ccccc1-c1nc2cnccn2c1NCCC(=O)Nc1cc(F)ccc1F	inactive		
CC(C)c1ccc2occ(CC(=O)Nc3cccc(C(F)(F)F)c3)c2c1	inconclusive: 17.8 µM [inhibitor, single point]		

Structure (SMILES)	Potency	outcome	activity, negative = inhibition
COc1ccc(Cl)cc1-c1ccc2c(c1)C(=O)N1CC[C@H](NC(=O)NC(C)C)[C@H]1C(=O)N2	inactive		
COc1ccc(S(=O)(=O)N2CCC(OC3CCN(C)CC3)CC2)cc1	inconclusive: 7.94 µM [inhibitor, partial curve, poor fit]		
CC(C)(C)c1ccc(C(=O)N2CCOCC(O)(CN3CCCC3)C2)cc1 (configuration not stated)	inconclusive: 12.6 µM [inhibitor, partial curve, poor fit]		
COc1cccc(CN2CCc3nc(N4CCOCC4)[nH]c(=O)c3CC2)c1OC	inconclusive: 0.355 µM [inhibitor, full curve, poor fit]		
COc1cccc(-n2c(-c3ccc(C)cc3)cc3c2CC(C)(C)CC3=O)c1	inconclusive: 11.2 µM [inhibitor, single point]		
O=C(c1cccnc1)N1CC(CO)C2(CCNCC2)C1 (configuration not stated)	inactive		
CC1CCCCN1c1nc(-c2ccc(C(C)(C)C)cc2)nc2ccccc12 (configuration not stated)	inconclusive: 11.2 µM [inhibitor, single point]		
Cc1ccc(C)c(N2CCN(C(=O)Cn3c(C)c4cnn(-c5ccccc5)c(=O)c4c3C)CC2)c1	inactive		
COC(=O)c1ccc2nc(C[C@@H]3C[C@@H](C(C)C)[C@H](CNC4CCN(C)CC4)C=C3C)[nH]c2c1	active: 3.16 µM		
CCN(C(=O)Cn1cc(C(=O)c2ccc(F)cc2)c(=O)c2ccc(C)nc21)c1cccc(C)c1	active: 8.91 µM		
COC(=O)c1ccccc1NC(=O)Cn1nc(C(F)(F)F)c2c1CCCC2	inconclusive: 20 µM [inhibitor, single point]		
COc1ccc(-c2nc(CN3CC[C@H]4CC[C@@H](C3)N4)c(C)o2)c(OC)c1C	inconclusive: 11.2 µM [inhibitor, single point]		
Cc1ccc(C)c(Nc2nc3c(S(=O)(=O)c4ccc(Br)cc4)nnn3c3ccsc23)c1	inconclusive: 11.2 µM [inhibitor, partial curve, poor fit]		
Cc1ccc(C(=O)N2CCCN(c3cc(-c4ccc(Br)cc4)[nH]n3)CC2)cn1	inconclusive: 0.708 µM [inhibitor, full curve, poor fit]		
O=C1N(c2ccccc2)c2ccccc2C12CCN(Cc1ccsc1)C2 (configuration not stated)	inconclusive: 11.2 µM [inhibitor, partial curve, poor fit]		
CCc1ccccc1NC(=O)N1CCc2cc(OC)c(OC)cc2C1CC(=O)OC (configuration not stated)	inactive		
O=C(c1ccc(Br)o1)N1C[C@@H](CO)[C@H](c2ccncc2)C1	inconclusive: 20 µM [inhibitor, single point]		
O[C@H]1[C@H](NCc2ccco2)[C@H]2CO[C@H](O2)[C@@H]1N1CCC(Cc2ccccc2)CC1	inconclusive: 3.55 µM [inhibitor, single point]		
CCOc1ccccc1C1NC(=O)N(CC(=O)Nc2cccc(OC)c2)C2=C1C(=O)OC2 (configuration not stated)	inconclusive: 15.8 µM [inhibitor, partial curve, poor fit]		
CCC(=O)N1Cc2ccccc2CC2(CCCN(Cc3ccc(O)cc3)C2)C1 (configuration not stated)	inconclusive: 8.91 µM [inhibitor, partial curve, poor fit]		
CCN1CCN(c2c(S(=O)(=O)c3ccc(Cl)cc3)cnc3ccccc23)CC1	inconclusive: 10 µM [inhibitor, single point]		
Cc1ccccc1N1CCCN(Cc2nc(-c3ccccn3)no2)CC1	inconclusive: 17.8 µM [inhibitor, single point]		
c1csc(CN2CCC(Oc3ccccc3-c3nc(-c4cnccn4)no3)C2)c1 (configuration not stated)	active: 5.62 µM		

Structure (SMILES)	Potency	outcome	activity, negative = inhibition
CC(C)(C)c1ccnc(N[C@H]2CO[C@H]3[C@@H]2OC[C@@H]3NC(=O)NCc2ccccc2)n1	active: 5.01 µM		
NCC(=O)N1CCCC2(Cc3ccccc3CN2C(=O)Cc2cccc(Cl)c2)C1 (configuration not stated)	active: 12.6 µM		
Cn1nc(-c2ccccc2)cc1[C@H]1CN2CC[C@H]1C[C@@H]2CNC(=O)c1cccs1	inconclusive: 10 µM [inhibitor, partial curve, poor fit]		
COc1cc(C2c3c(-c4c(C)cc(C)cc4O)n[nH]c3C(=O)N2CCCOC(C)C)cc(OC)c1OC (configuration not stated)	inconclusive: 10 µM [inhibitor, single point]		
c1ccc(-n2cc(CN3CCCC(OCc4cccnc4)C3)nn2)cc1 (configuration not stated)	inactive		
COc1ccc2[nH]c(C(=O)N[C@H]3COC[C@H]3Cc3cc(C)no3)c(C)c2c1	inactive		
Cc1cc(C(=O)N2C[C@@H](COCC3CC3)[C@H](c3ccncc3)C2)c(C)o1	inconclusive: 12.6 µM [inhibitor, partial curve, poor fit]		
CCC1CN(S(=O)(=O)c2ccc3c(c2)NC(=O)CC(=O)N3)c2cc(Cl)ccc2O1 (configuration not stated)	inconclusive: 3.98 µM [inhibitor, single point]		
Cc1ccc(-c2cc(N3CCCN(C(=O)c4ccccc4F)CC3)n[nH]2)cc1C	inconclusive: 6.31 µM [inhibitor, partial curve, poor fit]		
O=C(c1ccc(Cl)cc1)N1CC(c2nnc(-c3ccncc3)o2)C2(CCOCC2)C1 (configuration not stated)	inactive		
CC(C)NC(=O)C[C@@H]1O[C@H](CNC(=O)NC(C)C)[C@@H](O)[C@H]1O	inactive		
O=C(CN1C(=O)NC2(CCS(=O)(=O)CC2)C1=O)Nc1cc(F)cc(F)c1	inactive		
CC(C)c1noc(C2CCCN(C(=O)Cc3cccc(F)c3)CCC(=O)NCC2)n1 (configuration not stated)	inactive		
CCC(CC)C(=O)N1CCc2cc(OC)c(OC)cc2C1COc1ccc(C(=O)OC)cc1 (configuration not stated)	inconclusive: 10 µM [inhibitor, single point]		
O=S(=O)(c1ccc(Cl)cc1)c1nnn2c1nc(NCc1cccs1)c1sccc12	inactive		
CCOC(=O)c1ccc(N2C(=O)c3n[nH]c(-c4cccs4)c3C2c2cccc(OC)c2)cc1 (configuration not stated)	active: 3.55 µM		
Cc1oc2c(c1C(=O)NCc1cccnc1)CN(Cc1ccc(F)cc1)CC2	inactive		
O=C1CC2CCN(Cc3nc4ccccc4s3)CC2CCN1 (configuration not stated)	inactive		
CCC(=O)Nc1ccc2nc(SCc3ccccc3)sc2c1	inactive		
O=C(NC1CCCCC1)N1CCC2(CC1)CC(N1CCN(c3ccccn3)CC1)CCO2 (configuration not stated)	inconclusive: 17.8 µM [inhibitor, single point]		
COc1cccc(-n2c(-c3ccco3)nc3c(cnn3-c3ccc(Cl)cc3)c2=O)c1	inconclusive: 17.8 µM [inhibitor, single point]		
